Test results reported in PubChem BioAssay AID1346428 (National Center for Advancing Translational Sciences (NCATS), 2018).
Screen size: about 48,000 compounds; about 1,200 (2.5%) were called active. Not shown: some 2% with an inconclusive outcome.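 How the source made its calls: active means activation of at least 60% and not above a set upper limit (about 1 call in 100 departs from these limits); inconclusive means activation of 40% to 60%, or above that upper limit; inactive means activation under 40%.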 This is one part of the list.

Biological target: Probable G-protein coupled receptor 32 (Homo sapiens) (UniProt O75388)
Experiment: qHTS for Agonists of Human Resolvin D1 Receptor DRV1
Conditions: CHO-K1 GPR32 beta-arrestin PathHunter luminescence, 90 min; at 76.9 µM; active compounds read high; zero percent set by DMSO-only wells
From the text: Endogenous resolution of inflammation is known to be transduced through various GPCRs and their natural mediators of lipid nature. Resolvin D1 (RvD1) is one of the active players in resolution of acute inflammation through regulation of anti-inflammatory pathways; it is known to enhance phagocytosis of human macrophages, limits neutrophils infiltration, etc. […] The search for GPR32-activating small molecules with anti-inflammatory effects similar to its natural omega-3 derivative ligand in order to use them as research tools for further studies of inflammation and its resolution was the goal of this screening project. For primary screening assay, we used CHO-K1 GPR32 beta-arrestin cell line (DiscoveRx, #93-0321C2A) and the PathHunter(R) beta-Arrestin Assay (DiscoveRx) which measures recruitment of beta-arrestin to the GPR32 and generates chemiluminescent signal. These engineered cells stably transfected with GPR32 co-express GPR32-fused small 42-amino acid fragment of beta-Gal called ProLinktrade mark, and […] -tagged beta-Arrestin fusion protein. When GPR32 is activated by a ligand, it stimulates binding of beta -Arrestin to ProLink-tagged GPR32, and two parts of beta-Gal complement forming a functional enzyme. Upon substrate (PathHunter(R) Detection reagent) addition, beta-Gal hydrolyzes it and generates a chemiluminescent signal.
The cells were thawed and plated in thawing media containing F-12 HAM (Invitrogen, #11765-054), 10% FBS (Invitrogen, #10082), 1x Glutamine, and 1x Pen/Strep onto the 175-mm flask for 24 hours. Then, thawing media was replaced with Growth media which contains 800microg/mL Geneticin (Invitrogen, #10131) and 300microg/mL Hygromycin B (Invitrogen, #10687) in addition to described above. For the assay, the cells were harvested at ~80% confluent stage with Cell Dissociation buffer (Gibco, #13151), and seeded at 2,500 cells/ 3microL/well in assay media (PathHunter(R) Cell Plating Reagent, DiscoverX, #93-0563R1B) using MultiDrop Combi dispenser (Thermo Scientific, Logan, UT) onto white solid bottom tissue culture-treated 1536-well plates (Greiner # 789173-F) and allowed to attach overnight at 37 degrees C, 95% humidity, 5% CO2, . Next, 23nL/well of compound solutions in DMSO were added with a Pin Tool (Kalypsis, San Diego, CA) to the assay plates. As the basal control (EC0), 23 nL/well of DMSO was used on each plate. The cells were incubated in the presence of compounds or DMSO for 90 minutes at 37 degrees C, 5% CO2. Subsequently, 1.5microL/well of PathHunter(R) Detection Reagent prepared per the manufacturer's instructions was added to the assay plates with BioRAPTR FRDtrade mark dispenser (Beckman Coulter, San Francisco, CA) and incubated for 1 hour at ambient temperature prior to the measurement of the luminescent signal on ViewLux(R) uHTS Microplate Imager (Perkin Elmer, Waltham, MA).

Chain of UniProt O75388 (O75388 whole entry, looked up): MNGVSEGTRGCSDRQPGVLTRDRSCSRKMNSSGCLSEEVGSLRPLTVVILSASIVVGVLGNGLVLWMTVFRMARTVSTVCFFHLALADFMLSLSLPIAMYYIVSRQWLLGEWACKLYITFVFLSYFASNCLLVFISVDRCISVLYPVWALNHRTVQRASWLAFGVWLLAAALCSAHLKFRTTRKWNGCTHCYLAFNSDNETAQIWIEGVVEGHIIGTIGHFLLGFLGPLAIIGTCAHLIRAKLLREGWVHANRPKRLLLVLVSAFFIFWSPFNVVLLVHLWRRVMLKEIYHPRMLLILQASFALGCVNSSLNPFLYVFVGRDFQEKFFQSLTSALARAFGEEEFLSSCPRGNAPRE

activation, active:
Cc1ccc2[nH]c(CSc3nnc(NC(=O)COc4ccccc4)s3)cc(=O)c2c1 75.8%

activation, inactive:
CCCCc1nn2c(=O)cc(COC(=O)c3ccc(NC(=O)c4ccccc4Cl)cc3)nc2s1 -25.2%
CCOCCCNC(=O)C(c1ccc(OC)cc1)N(Cc1ccc2c(c1)OCO2)C(=O)c1ccc(NC(C)=O)cc1 (configuration not stated) -2.59%
Nc1nc2ccccc2n1Cc1ccc(F)cc1 48%
COc1ccc(CCNC(=O)CCCn2c(=O)c3ccccc3n(Cc3cccc(Cl)c3)c2=O)cc1OC 6.2%
CCOc1ccc(N(C(=O)CC(C)C)S(=O)(=O)c2ccc3c(c2)oc(=O)n3C)cc1 -15.1%
Cc1ccc(-c2nc3scc(CCNC(=O)Cc4ccc(Cl)cc4)n3n2)cc1 32.9%
CCC(=O)Nc1c(C(=O)N2CCN(c3ccc(F)cc3)CC2)oc2ccccc12 -0.474%
COc1ccc(CCNS(=O)(=O)c2ccc3c(c2)CC(C)N3C(=O)C2CCC2)cc1OC (configuration not stated) 30.2%
COc1ccc(S(=O)(=O)n2nc(C)c(S(=O)(=O)N3CCC(C)CC3)c2C)cc1C -12.2%
O=C1NCCN(Cc2ccc(F)cc2)C1=O 9.71%
Cc1cccc(C)c1NC(=O)CSc1nc(-c2ccccc2)nc2c1Cc1c(CO)cnc(C)c1O2 -15.7%
CCCn1c(SCc2nc(-c3ccc(OC)cc3OC)no2)nnc1-c1ccc(Cl)cc1 -6.69%
CCC1CN(C(=O)N2CCC(C(=O)NCCc3ccc(Cl)cc3)CC2)c2ccccc2O1 (configuration not stated) -14.9%
CCN(CC)c1ccc(NS(=O)(=O)c2ccc(-c3cnc(C4CC4)o3)cc2)c(C)c1 -18.7%
COc1ccc(-c2noc(CN(C(=O)COc3cc(C)c(Br)c(C)c3)C(C)C)n2)cc1 3.48%
Cn1c(SCc2ccc(F)cc2)nc2ccc(C(=O)NCc3ccc(Cl)cc3)cc21 -2.39%
COc1ccc(NC(=O)Cn2nnc(C(=O)Nc3ccc(F)c(Cl)c3)c2N)cc1OC -11.6%
Cc1ccc(NC(=O)Cn2cc(C(=O)C3CC3)c3ccccc32)cc1 -1.93%
COC(=O)c1scc(-c2ccc(C)cc2)c1S(=O)(=O)Nc1cc(Cl)ccc1C -25.1%
Cn1c(=O)c(=O)n(C)c2cc(N3CCOCC3)c(NS(=O)(=O)c3ccc(Cl)cc3)cc21 -5.58%
CCOC(=O)c1[nH]c2c(c1Cc1ccccc1)C(=O)CC(c1ccc(Cl)cc1)C2 (configuration not stated) -17.5%
CCc1ccc(S(=O)(=O)c2cn(CC(=O)Nc3ccc(C)cc3)c3ccccc3c2=O)cc1 -19.2%
CCOc1ccccc1NC(=O)c1sc2nc3n(c(=O)c2c1C)CCCCC3 2.79%
COCCOC(=O)c1c(C)n(S(=O)(=O)c2ccc(C)cc2)c2ccc(NS(=O)(=O)c3ccc(C)cc3)cc12 -7.98%
CCOC(=O)c1ccc(NC(=O)c2c(NC(C)=O)sc3c2CCC(C)C3)cc1 (configuration not stated) -30.3%
CCOc1ccc(CCNC(=O)c2ccc3c(Cl)c4c(nc3c2)CCCC4)cc1 -4.39%
O=S(=O)(NCCc1nnc2ccc(SCc3ccc(Cl)cc3Cl)nn12)c1ccccc1 0.218%
COc1cccc(C(c2sc3nc(-c4ccco4)nn3c2O)N2CCC(O)CC2)c1 (configuration not stated) 3.61%
Cc1c2cnn(-c3ccccc3)c(=O)c2c(C)n1CCCC(=O)Nc1cc(F)ccc1F -15.2%
Cc1cccc(C)c1NC(=O)C(NS(=O)(=O)c1ccc2c(c1)CCC(=O)N2)c1ccccc1 (configuration not stated) -3.38%
COC(=O)c1nc2n(n1)C(c1cccc(Cl)c1)C(C(=O)Nc1ccccc1OC)=C(C)N2 (configuration not stated) -29.3%
COc1ccc(N2CCN(S(=O)(=O)c3ccc4oc(=O)c5ncn(C)c5c4c3)CC2)cc1 14.5%
COc1ccc(-c2nc3sc(CCNC(=O)c4cc(OC)c(OC)c(OC)c4)c(C)n3n2)cc1 9.26%
CCOc1ccc(NC(=O)CSc2ncc3c(n2)-c2ccc(Cl)cc2N(Cc2ccccc2)S3(=O)=O)cc1 19.3%
O=C(CSC1=Nc2ccccc2C2=NC(CC(=O)NC3CCCCC3)C(=O)N12)Nc1ccc(F)cc1 (configuration not stated) -31.1%
CCN(c1cccc(C)c1)S(=O)(=O)c1nnc(NC(=O)C2CCCCC2)s1 -20.9%
O=C(CSc1nc2ccccc2nc1Cc1ccc(Cl)cc1)N1CCc2ccccc21 -18.8%
CCc1ccc(CNC(=O)CN2C(=O)c3cccnc3Oc3ccc(Cl)cc32)cc1 -12.7%
Cc1ccc(-c2nc(C)c(CCNC(=O)c3ccco3)s2)cc1 28.8%
Cc1ccc(C)c(N2CCN(S(=O)(=O)c3cc(Br)cc4c3N(C(=O)C3CC3)CC4)CC2)c1 -14.6%
COc1ccc(C)cc1NC(=O)c1oc2ccc(S(=O)(=O)N3CCCCC3)cc2c1C -1.32%
CCOc1ccc(C2c3[nH]c4ccccc4c3CCN2C(=O)CCc2ccccc2)cc1 (configuration not stated) -37.9%
CCOC(=O)c1ccc(NC(=O)CCn2c(=O)c3cccn3c3ccccc32)cc1 -15%
CCOc1ccc(CCNC(=O)c2sc3nc4n(c(=O)c3c2C)CCCC4)cc1OCC -6.27%
O=C(C1CCN(S(=O)(=O)c2ccc(Br)s2)CC1)N1CCN(c2cccc(Cl)c2)CC1 28.3%
COc1cc(C(=O)NCCCc2nc3ccccc3n2CC(C)C)cc(OC)c1OC 5.71%
Cc1ccc(Sc2c(C)nn(C(=O)COc3ccccc3Br)c2C)cc1 -3.16%
Clc1ccc2c(c1)Nc1ccccc1S2 6.2%
CCOC(=O)c1c(NC(=O)c2ccc(S(=O)(=O)N3CCC(C)CC3)cc2)sc2c1CCN(C)C2 -18.5%
NC(=O)c1c(NC(=O)c2nc(SCc3ccccc3F)ncc2Cl)sc2c1CCCC2 20.2%
COc1ccc(-n2c(SCC(=O)Nc3ccc(Cl)c(C)c3)nc3n[nH]c(C)c3c2=N)cc1 -8.32%
O=C(Nc1nc2ccc(S(=O)(=O)N3CCCC3)cc2s1)c1cccc(F)c1 -21.2%
Cc1cc(C)cc(-n2ccnc2SCC(=O)Nc2nnc(C)s2)c1 20.6%
CCOC(=O)c1sc2ncn(CC(=O)Nc3ccc(N(C)C)cc3)c(=O)c2c1C -6.04%
CCOc1ccc2nc(N3CCCC(C(=O)Nc4c(C)cccc4C)C3)sc2c1 (configuration not stated) -7.56%
CCS(=O)(=O)N1CCc2cc(C(=O)Nc3ccc(OC)c(Cl)c3)ccc21 12.3%
CCCCn1cc(S(=O)(=O)c2ccc(C)c(C)c2)c(=O)c2cc(F)c(N3CCCC(C)C3)cc21 (configuration not stated) -4.09%
COc1ccc(OC)c(CNC(=O)c2nn(-c3ccc(OC)c(Cl)c3)c(=O)c3c2c2ccccc2n3C)c1 10.8%
CCOc1cc(C(=O)N2CC(=O)Nc3ccc(C)cc3C2c2ccccc2)cc(OCC)c1OCC (configuration not stated) -1.79%
Cc1nnc(SCc2ccccc2)c2cc3sccc3n12 -24.3%
O=S(=O)(Nc1cccc(-c2ccc(N3CCCC3)nn2)c1)c1ccccc1C(F)(F)F 13.7%
COCCCNC(=O)CSC1=Nc2ccccc2C2=NC(CCC(=O)NCc3ccccc3OC)C(=O)N12 (configuration not stated) -26.6%
COc1ccc(N2CCN(c3oc(/C=C/c4ccc(F)cc4)nc3C#N)CC2)cc1 -19.4%
CCc1ccc(CN(Cc2ccco2)C(=O)c2ccc(OC)cc2)cc1 -8.03%
COC(=O)c1cccnc1 1.15%
CCc1ccc(CNC(=O)CCC(=O)N2Cc3cccc(OC)c3Oc3ncccc32)cc1 -6.92%
Cc1cc(C)cc(OC(C)C(=O)Nc2nonc2-c2ccc(Br)cc2)c1 (configuration not stated) -7.9%
O=C(Nc1cccc(C(=O)OCc2cc(=O)n3nc(C4CC4)sc3n2)c1)c1ccccc1 -2.56%
Cc1ccc(Cl)cc1N(C)C(=O)Cn1nc(Cc2cccnc2)c2ccccc2c1=O -65.4%
Nc1c(-c2nc(-c3cccs3)no2)nnn1-c1ccccc1Cl -4.02%
CCOc1cccc(CNC(=O)c2ccc(N3CCCC3)c(NC(=O)NCc3ccc(F)cc3)c2)c1 -22%
O=C(NCc1ccco1)C1CCN(C(=O)N2CCOc3ccccc32)CC1 -3.83%
O=[N+]([O-])c1ccc(-c2nc(-c3ccc(F)cc3)c(-c3ccncc3)[nH]2)cc1 -17.5%
Cc1ccccc1NC(=O)CSc1nnc(C)c(=O)[nH]1 -3.99%
Cc1ccccc1CS(=O)(=O)CC1Nc2ccc(C(=O)NCc3ccc(Cl)cc3)cc2NC1=O (configuration not stated) -17.6%
COCCn1c(CNC(=O)c2ccc(C)cc2)nc2cccnc21 -8.6%
COc1ccccc1-c1nc2c3c(-c4ccccc4)c(-c4ccccc4)oc3ncn2n1 4.81%
CCN(CC)CCOC(=O)c1ccc(NC(=O)Cn2ncc3c([nH]c4ccc(C)cc43)c2=O)cc1 6.5%
Cc1ccc(C)c(Cn2c3ccccc3c3cnn(CC(=O)NCCCc4ccccc4)c(=O)c32)c1 -11.6%
CCOc1ccc(-c2nonc2NC(=O)c2oc3c(C)c(C)ccc3c2C)cc1OCC -5.72%
O=c1cc(-c2ccccc2F)[nH]c2cc3c(cc12)OCO3 -2.7%
